Test results published in PubChem BioAssay AID504832 (National Center for Advancing Translational Sciences (NCATS), 2011).
The campaign covered roughly 310,000 compounds. About 18,000 (5.8%) were called active. Inconclusive results, whose numbers are uncertain, are shown with a selection of clear calls. Calls come from the whole dose curve; as a rule, active = well fitted inhibition curve with a large enough effect; inconclusive = small, poorly fitted or top-dose-only effect, or another doubt; inactive = no such curve, though single readings can be large or run the other way. No potency is given beside an inconclusive call; the fits are too rough.

assay: Primary qHTS for delayed death inhibitors of the malarial parasite plastid, 48 hour incubation; settings: P. falciparum luciferase growth in erythrocytes; series mostly up to 28.7 µM
Procedure, shortened: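 Cell-based growth assay: transgenic P. falciparum expressing firefly luciferase, cultured in red cells within RPMI 1640 containing 0.5% w/v Albumax, 24 mM bicarbonate and gentamycin. A drop in luciferase activity indicates inhibition.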
Potency is the fitted concentration of half-maximal effect; tags give direction and shape of the fitted curve.

SMILES	Potency
CCC(Sc1ncccc1C(=O)OCCN1CCCC1=O)C(=O)NCc1ccco1 (stereo not drawn)	inconclusive [inhibitor, full curve, poor fit]
BrC(=C\c1ccccc1)/C=N/Nc1nc(N2CCOCC2)nc(N2CCOCC2)n1	active: 7.38 µM
O=C(NCc1ccc2c(c1)OCO2)C1CCC(CNS(=O)(=O)c2ccccc2)CC1 (stereo not drawn)	inconclusive [inhibitor, single point]
COc1ccc(N2CCN(CC(O)COCCOc3ccc(Br)cc3)CC2)cc1 (stereo not drawn)	inactive
Cc1ccc2c(c1)cc(CN(Cc1cccnc1)C(=O)c1ccccc1)c1nnnn12	inconclusive [inhibitor, single point]
CC1CCC(C(C)C)C(OC(=O)COC(=O)c2ccc(=O)[nH]c2)C1 (stereo not drawn)	inactive
COc1ccccc1C(=O)Nc1ccnn1C1CCN(Cc2csc(C(C)=O)c2)CC1	inconclusive [inhibitor, single point]
O=C(CCCC(=O)c1ccccc1)Nc1ccc(F)cc1	inconclusive [inhibitor, partial curve, poor fit]
C/C(=N\N1CCCCCC1)c1c(O)n(-c2ccccc2)c(=O)[nH]c1=O	inconclusive [inhibitor, single point]
COc1ccc(N(C(=O)/C=C/c2ccccc2)C2=CC3CCC(C2)N3C)cc1 (stereo not drawn)	inconclusive [inhibitor, partial curve]
Cc1ccccc1CN(C)C(=O)COC(=O)CSc1ccc([N+](=O)[O-])cc1	inconclusive [inhibitor, partial curve, poor fit]
CCC(Sc1nc(C)cc(C)n1)C(=O)Nc1nccs1 (stereo not drawn)	inconclusive [inhibitor, single point]
O=C(Nc1ccccc1)C1CCCN(C(=O)c2ccc(F)cc2)C1 (stereo not drawn)	inconclusive [inhibitor, single point]
COc1cc(/C=C/[N+](=O)[O-])ccc1OC(=O)c1cc2ccccc2oc1=O	inconclusive [inhibitor, full curve, poor fit]
CC(C)n1ncc2c(C(=O)N3CCN(Cc4ccc(Br)s4)CC3)cc(C3CC3)nc21	active: 4.15 µM
CC1CCCCN1C(=O)c1cc(-c2ccc3c(c2)OCO3)on1 (stereo not drawn)	inactive
Cc1cc2nc(C)n(CCCNC(=O)Nc3ccccc3)c2cc1C	inconclusive [inhibitor, single point]
Cc1nn(-c2cc(N3CCCCC3)ccc2[N+](=O)[O-])c(=O)c2ccccc12	inconclusive [inhibitor, partial curve, poor fit]
